Data from PubChem BioAssay AID1345082 (National Center for Advancing Translational Sciences (NCATS), 2018).
In all, about 94,000 compounds went through this assay and about 4,000 (4.3%) were called active. The inconclusive results got no clear call from the source; some entries with a clear call stand among them for comparison. The call rests on the fitted dose curve; in most records, active means well fitted inhibition curve with a large enough effect; inconclusive means small, poorly fitted or top-dose-only effect; inactive means no such curve, though single readings can be large or run the other way. Potencies beside an inconclusive call are fits to weak or partial responses and may not hold up.

Assay: Cytotoxic Profiling in NIH 3T3 Cell Line of Diverse Libraries Using Quantitative High-Throughput Screening; further: nearly all actives have a fitted effect of over 55% in size
Conditions: NIH 3T3 viability, CellTiter-Glo ATP luminescence, 48-72 h; activity change, negative = cytotoxicity: at 96.7 µM (top of the series) unless noted; series mostly up to 96.7 µM
In short: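 First NIH 3T3 cells are plated at 400 cells/well; next compound is pinned in; then plates incubate 48 or 72 hr at 37 °C; finally CellTiter-Glo is added and luminescence read after 10 min.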
On the % scale 0 is the no-effect control and ±100 the full control effect; potency means the concentration at half of the fitted maximal effect; tags describe the fitted curve by direction and shape.

| SMILES | Potency | activity change, negative = cytotoxicity | outcome |
| --- | --- | --- | --- |
| COCc1cccc(-c2n[nH]c3c2CC(=O)N(Cc2ccc(OC)cc2)C3)c1 | active: 25.1 µM | – | – |
| O=C(NCc1ccc(F)cc1)C1CCCN(c2ccnc3ccnn23)C1 (stereo unspecified) | inconclusive: 56.2 µM [inhibitor, partial curve, poor fit] | – | – |
| Cc1nn(-c2ccccc2)c2c1C(C1CC1)N(C1CCN(C(=O)C3CCCC3)C1)C2=O (stereo unspecified) | inconclusive: 31.6 µM [inhibitor, partial curve, poor fit] | – | – |
| O=C(Nc1cccc(C(F)(F)F)c1)N[C@H]1CO[C@H]2[C@@H]1OC[C@@H]2n1nnnc1Oc1ccc(-n2ccnc2)cc1 | active: 22.4 µM | – | – |
| CCc1nc(-c2ccc(OC3CCN(S(=O)(=O)Cc4ccccc4)C3)cc2)no1 (stereo unspecified) | inconclusive: 50.1 µM [inhibitor, partial curve, poor fit] | – | – |
| CCN1c2cc(C(=O)Nc3ccc(C)cc3)ccc2C(=O)N2CCCCC21 (stereo unspecified) | active: 35.5 µM | – | – |
| CNC(=O)c1cc(-c2ccncc2)cc2c1OCCN2Cc1cccnc1 | inconclusive: 17.8 µM [inhibitor, full curve, poor fit] | – | – |
| O=C(C1CCCN([S+](=O)([O-])c2cccc(C(F)(F)F)c2)C1)N1CCC(c2nc3ccncc3[nH]2)CC1 (stereo unspecified) | inconclusive: 31.6 µM [inhibitor, partial curve, poor fit] | – | – |
| CC1(C)CN(C(=O)c2ccccc2Oc2ccccc2)CC1(C)O (stereo unspecified) | – | inactive: 0.202% | – |
| COc1ccc(-c2cc(N3CCN(C(=O)c4ccc(N(C)C)cc4)CC3)n[nH]2)cc1 | inconclusive: 35.5 µM [inhibitor, partial curve] | – | – |
| Cn1cc(CN2C[C@H](C(=O)Nc3ccccc3)C[C@@H]2c2cccc(C(F)(F)F)c2)cn1 | inconclusive: 89.1 µM [inhibitor, partial curve, poor fit] | – | – |
| O=C(c1cc(F)ccc1Cl)N1CCN(C(=O)c2nnn3c2COC(c2ccccc2)C3)CC1 (stereo unspecified) | – | inactive: -15.2% | – |
| CCC1Oc2ccc(NC(=O)c3ccc([N+](=O)[O-])cc3)cc2CN(Cc2ccc(F)cc2)C1=O (stereo unspecified) | inconclusive: 31.6 µM [inhibitor, full curve] | – | – |
| Cc1ccc(-c2cccc(CN3CCCC(NC(=O)c4ccccc4C)C3)c2)cc1Cl (stereo unspecified) | inconclusive: 70.8 µM [inhibitor, single point] | – | – |
| COc1ccc(C(=O)N2CCN(c3cc(-c4cccs4)[nH]n3)CC2)c(OC)c1 | inconclusive: 15.8 µM [inhibitor, full curve, poor fit] | – | – |
| Cc1cccc([C@H]2C[C@@H](O)[C@@H](O)[C@@H]2NC(=O)c2ccccc2)c1 | – | inactive: -11.4% [at 174 µM] | – |
| O=C(NCc1ccccc1F)c1ccc2c(c1)CN(Cc1ccccc1F)CCO2 | inconclusive: 50.1 µM [inhibitor, partial curve, poor fit] | – | – |
| Cc1ccc(-c2ccccc2CN2CCC(C(=O)N3CCC(C#N)CC3)CC2)cc1Cl | inconclusive: 50.1 µM [inhibitor, partial curve, poor fit] | – | – |
| CCn1c2c(c(=O)n1Cc1ccccc1)CCN(Cc1cncc(OC)c1)C2 | active: 79.4 µM | – | – |
| O=C1NC2(CN(Cc3ccccc3C(F)(F)F)C2)Oc2ccccc21 | inconclusive: 50.1 µM [inhibitor, partial curve, poor fit] | – | – |
| COCCOc1ccc2c(n1)CCN(C(=O)c1ccncc1)C2 | – | inactive: -15% | – |

| SMILES | Potency | activity change, negative = cytotoxicity | outcome |
| --- | --- | --- | --- |
| CN1CCC(C(=O)N2Cc3ccccc3CC3(CCN(Cc4ccncc4)C3)C2)CC1 (stereo unspecified) | – | – | inactive |
| CC(=O)Oc1ccccc1C(=O)Nc1ccc2c(c1)CN(CCc1ccc(F)cc1)C(=O)C(C)O2 (stereo unspecified) | active: 25.1 µM | – | – |
| CCc1cccc(NC(=O)N2c3ccccc3CC2c2nc(CCOC)no2)c1 (stereo unspecified) | inconclusive: 35.5 µM [inhibitor, partial curve] | – | – |
| COc1ccccc1C(=O)N1CC(Oc2ccc3c(c2)OCO3)C1 | inconclusive: 89.1 µM [inhibitor, single point] | – | – |
| COc1ccccc1CC(=O)N1CCCc2ncc(C(=O)N3CCCC[C@@H]3Cc3ccccc3)cc21 | – | inactive: -35.2% | – |
| Fc1cccc(C2CCCCCN2Cc2cn(-c3ccccc3)nn2)c1 (stereo unspecified) | inconclusive: 50.1 µM [inhibitor, partial curve, poor fit] | – | – |
| COc1ccc(Nc2cc3c(cn2)CN(CCc2ccccc2)CCN3)cc1OC | active: 25.1 µM | – | – |
| COc1ccc(CCNC(=O)c2c(C)noc2-c2ccc(OC(F)(F)F)cc2)cc1 | – | inactive: -16.3% | – |
| O=C(NCc1cccc(F)c1)N1CCc2nc3cc(-c4ccccc4)[nH]n3c(=O)c2C1 | inconclusive: 50.1 µM [inhibitor, partial curve, poor fit] | – | – |
| COc1ccc(Nc2ccnc(N3CCC(C(=O)NCCCc4ccccc4)CC3)n2)cc1 | inconclusive: 28.2 µM [inhibitor, full curve] | – | – |
| CC(=O)N1CCCN(c2ncnc3c2CN(C2CCCCC2)C(=O)CN3C)CC1 | – | inactive: -24.2% | – |
| O=C(c1cccs1)N1CCCC(c2noc(COc3ccccc3F)n2)C1 (stereo unspecified) | inconclusive: 50.1 µM [inhibitor, partial curve, poor fit] | – | – |
| O=C(Nc1ccc2c(c1)CN(Cc1ccccc1F)C(=O)CO2)c1ccccc1F | inconclusive: 50.1 µM [inhibitor, partial curve, poor fit] | – | – |
| O=C(c1cccc(C(F)(F)F)c1)N1CC(=O)N(C2CCCCC2)CC(O)C1 (stereo unspecified) | – | inactive: -22.4% | – |
| O=C(NCc1ccc(Cl)cc1)c1ccc2nnc(Cc3ccc(Cl)cc3)n2c1 | active: 31.6 µM | – | – |
| Cc1nn(-c2ccccc2)c(C)c1[C@@H]1C=C[C@@H](NCc2cccc(C#N)c2)C1 | inconclusive: 79.4 µM [inhibitor, partial curve, poor fit] | – | – |
| O=C(Nc1ccc(F)c(Cl)c1)N1CCC(Oc2ncccc2C(=O)N2CCCCC2)C1 (stereo unspecified) | – | – | inactive |
| O=S(=O)(c1ccccc1)N1CCC(c2nc(-c3ccccc3)no2)C1 (stereo unspecified) | inconclusive: 44.7 µM [inhibitor, partial curve] | – | – |
| O=C(c1nc(-c2ccc(Cl)cc2Cl)c2ccccn12)N1CCCC1 | inconclusive: 70.8 µM [inhibitor, single point] | – | – |
| Cn1cc(CN2C[C@@H]3C[C@H]2C(=O)N(CC2CC2)c2ccccc2O3)c2ccccc21 | active: 100 µM | – | – |
